Assay results from the supplement of paper PMC6609913.
Structures can show the parent of a compound that is named as a salt. ± gives the standard deviation of the averaged measurements. Whole data set: some 1,300 compounds, median “normalised cell viability” near 1, cut for the lowest 2% near 0.14. Some of the results follow.

System: V-C8 (BRCA2-deficient hamster cells)
Assay: normalised cell viability (fraction of plate median); higher = more viable cells (less toxic)
Settings: 5 µM
Outline: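 Hamster V-C8 cells lacking BRCA2 and V-C8 cells with BRCA2 restored were seeded in 96-well plates. Library drugs (10 mM DMSO stocks) were added 24 h later at 5 μM in 100 μl medium, next to DMSO control wells, for 3 days (screen 1) or 6 days (screen 2). Cell viability was read by resazurin assay, median-plate normalised (modified robust per cent of sample), and triplicate wells were averaged.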

| Compound | normalised cell viability (treatment time: 3 days) | normalised cell viability (treatment time: 6 days) |
| --- | --- | --- |
| CCC(=O)O[C@]1(C(=O)CCl)[C@@H](C)C[C@H]2[C@@H]3CCC4=CC(=O)C=C[C@]4(C)[C@@]3(F)[C@@H](O)C[C@@]21C [Clobetasol propionate] | 0.935 ± 0.066 | 0.987 ± 0.074 |
| O=S(=O)(O)c1cc(O)ccc1O [Ethamsylate] | 1.03 ± 0.033 | 0.866 ± 0.07 |
| O=C1OCCN1/N=C/c1ccc([N+](=O)[O-])o1 [Furazolidone] | 0.599 ± 0.051 | 0.486 ± 0.018 |
| CCCCc1cc2ccccc2c(OCCN(C)C)n1 [Dimethisoquin hydrochloride] | 1.03 ± 0.087 | 1.04 ± 0.05 |
| CC(C(=O)O)c1ccc2c(c1)[nH]c1ccc(Cl)cc12 (stereo unspecified) [Carprofen] | 1.06 ± 0.053 | 1 ± 0.046 |
| Cc1cccc(C)c1NC(=O)C(C)N (stereo unspecified) [Tocainide hydrochloride] | 1.05 ± 0.017 | 1.09 ± 0.061 |
| CN(C)C(=O)C(CCN1CCC(O)(c2ccc(Cl)cc2)CC1)(c1ccccc1)c1ccccc1 [Loperamide hydrochloride] | 0.492 ± 0.027 | 0.452 ± 0.024 |
| O=C(OCC(O)CO)c1ccccc1Nc1ccnc2cc(Cl)ccc12 (stereo unspecified) [Glafenine hydrochloride] | 1 ± 0.056 | 0.972 ± 0.034 |
| CC(C(=O)O)c1ccc(-c2ccccc2)c(F)c1 (stereo unspecified) [Flurbiprofen] | 1.01 ± 0.025 | 0.991 ± 0.027 |
| COc1cc([S+](C)[O-])ccc1-c1nc2cccnc2[nH]1 (stereo unspecified) [Sulmazole] | 1.06 ± 0.037 | 1.03 ± 0.13 |
| C[C@H]1O[C@@H](O[C@H]2[C@@H](O)C[C@H](O[C@H]3[C@@H](O)C[C@H](O[C@H]4CC[C@@]5(C)[C@H](CC[C@@H]6[C@@H]5C[C@@H](O)[C@]5(C)[C@@H](C7=CC(=O)OC7)CC[C@]65O)C4)O[C@@H]3C)O[C@@H]2C)C[C@H](O)[C@@H]1O [Digoxin] | 1.002 ± 0.0042 | 0.931 ± 0.027 |
| CC(=O)[C@H]1CC[C@H]2[C@@H]3C=CC4=CC(=O)CC[C@@]4(C)[C@@H]3CC[C@]12C [Dydrogesterone] | 1.04 ± 0.015 | 1.12 ± 0.012 |
| NC[C@@H]1O[C@H](O[C@H]2[C@@H](O)[C@H](O[C@@H]3[C@@H](O)[C@H](N)C[C@H](N)[C@H]3O[C@H]3O[C@H](CO)[C@@H](O)[C@H](O)[C@H]3N)O[C@@H]2CO)[C@H](N)[C@@H](O)[C@@H]1O [Paromomycin sulfate] | 1.02 ± 0.0077 | 1.05 ± 0.025 |
| COc1ccccc1OCC(O)CO (stereo unspecified) [Guaifenesin] | 1.05 ± 0.022 | 0.974 ± 0.16 |
| Cc1cccc(C)c1OCC(C)N (stereo unspecified) [Mexiletine hydrochloride] | 0.915 ± 0.09 | 0.985 ± 0.066 |
| CN1[C@@H]2CC[C@H]1C[C@@H](OC(=O)c1c[nH]c3ccccc13)C2 [Tropisetron HCl] | 1.08 ± 0.056 | 1.27 ± 0.015 |
| CCOC(=O)C1=C(COCCN)NC(C)=C(C(=O)OC)C1c1ccccc1Cl (stereo unspecified) [Amlodipine] | 0.874 ± 0.12 | 0.844 ± 0.046 |

| Compound | normalised cell viability (treatment time: 3 days) | normalised cell viability (treatment time: 6 days) |
| --- | --- | --- |
| COc1ccc(/C=C/C(=O)Nc2ccccc2C(=O)O)cc1OC [Tranilast] | 0.949 ± 0.048 | 1.05 ± 0.025 |
| Cc1c(N(C)C)c(=O)n(-c2ccccc2)n1C [Amidopyrine] | 0.97 ± 0.012 | 0.987 ± 0.052 |
| Oc1c(Cl)cc(Cl)c(Cl)c1Cc1c(O)c(Cl)cc(Cl)c1Cl [Hexachlorophene] | 0.558 ± 0.038 | 0.592 ± 0.066 |
| CC[C@H](C)[C@H](N)C1=N[C@H](C(=O)N[C@@H](CC(C)C)C(=O)N[C@H](CCC(=O)O)C(=O)N[C@H](C(=O)N[C@H]2CCCCNC(=O)[C@H](CC(N)=O)NC(=O)[C@@H](CC(=O)O)NC(=O)[C@H](Cc3cnc[nH]3)NC(=O)[C@@H](Cc3ccccc3)NC(=O)[C@H]([C@@H](C)CC)NC(=O)[C@@H](CCCN)NC2=O)[C@@H](C)CC)CS1 [Bacitracin] | 1.05 ± 0.02 | 0.983 ± 0.061 |
| CN1CCN(CCCN2c3ccccc3Sc3ccc(C(F)(F)F)cc32)CC1 [Trifluoperazine dihydrochloride] | 0.618 ± 0.023 | 0.688 ± 0.02 |
| COc1ccc(OC)c(C(O)CNC(=O)CN)c1 (stereo unspecified) [Midodrine hydrochloride] | 0.991 ± 0.086 | 1.07 ± 0.069 |
| CN(C)CCN1C(=O)c2ccccc2N(C)c2ccccc21 [Dibenzepine hydrochloride] | 0.191 ± 0.011 | 0.215 ± 0.0073 |
| CN(C(=O)C(Cl)Cl)c1ccc(OC(=O)c2ccco2)cc1 [Diloxanide furoate] | 1.02 ± 0.036 | 1 ± 0.038 |
| Nc1ccn([C@H]2CC[C@@H](CO)O2)c(=O)n1 [Zalcitabine] | 1.02 ± 0.059 | 1.04 ± 0.044 |
| Oc1c(I)cc(Cl)c2cccnc12 [Clioquinol] | 0.847 ± 0.052 | 0.949 ± 0.026 |
| CC(C)(C#N)c1cc(Cn2cncn2)cc(C(C)(C)C#N)c1 [Anastrozole] | 1.01 ± 0.016 | 1.01 ± 0.082 |
| CN(C)CCOC(C)(c1ccccc1)c1ccccn1 (stereo unspecified) [Doxylamine succinate] | 1.03 ± 0.019 | 1.05 ± 0.017 |
| CC(=O)c1ccc2c(c1)N(CCCN(C)C)c1ccccc1S2 [Acetopromazine maleate salt] | 1.06 ± 0.035 | 1.02 ± 0.059 |
| O=C(C1CCCCC1)N1CC(=O)N2CCc3ccccc3C2C1 (stereo unspecified) [Praziquantel] | 1.11 ± 0.077 | 1 ± 0.23 |
| C(=C\c1ccccc1)/CN1CCN(C(c2ccccc2)c2ccccc2)CC1 [Cinnarizine] | 0.976 ± 0.044 | 0.983 ± 0.076 |
| COc1ccc2c(c1)c(CC(=O)O)c(C)n2C(=O)c1ccc(Cl)cc1 [Indomethacin] | 1.08 ± 0.1 | 1.02 ± 0.068 |
